The other results are listed elsewhere or left out. At the low end of the ranking, values are background and their order means little.

In the test the target is T1, GST-Rok-C97-191 (UniProt O34857).
T1 sequence: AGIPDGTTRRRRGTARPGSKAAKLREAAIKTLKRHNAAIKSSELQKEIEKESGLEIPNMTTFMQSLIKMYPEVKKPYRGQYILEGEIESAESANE
Put plainly: protein binding microarray.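 Note: rank score from −0.5 (least bound) to 0.5 (best bound).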 Conditions: Rok is a gene silencer of Bacillus subtilis; high values mean tight binding; most listed sequences are background and not binding sites; double strand, one strand shown.
The sequence CTCTAGAA registered a binding signal of 0.0573 E-score.
The figure for CGGACCGC is -0.252 E-score.
The result for AGCCAGCG reads -0.0812 E-score; that for AGCGCATG, -0.205 E-score.
The result for AACAGAGC reads 0.0245 E-score.
On to CCCCCTTA, for which the binding signal is -0.339 E-score.
ATCGGCGC came in with a binding signal of 0.0019 E-score.
The result for ATCGACTA reads 0.188 E-score.
As to ATAAGTCA, the binding signal was 0.0752 E-score.
The result for CTCTACTA reads 0.2 E-score; that for GGGACCTA, 0.0109 E-score.
Regarding CGACCTTA, the binding signal is 0.0683 E-score.
The figure for GAGAGTTA is 0.0853 E-score.
The result for AACGGTTA reads -0.0912 E-score; that for AGATGGCG, 0.0262 E-score; that for TAGTCAGA, -0.0101 E-score.
The result for CTAAGACA reads -0.0904 E-score; that for ATTTAACA, 0.213 E-score.
In turn, ACGGCGCA displayed a binding signal of -0.112 E-score.
As for GGCTGGAA, the binding signal is -0.118 E-score.
The figure for ACAGCAGA is -0.142 E-score; for TGACCACA it is -0.14 E-score.
The figure for GTATAAAA is 0.32 E-score; for AAAAACGG it is -0.125 E-score; for ATCTGCAA it is -0.00127 E-score.
In turn, ATGGGAAC gave a binding signal of -0.0604 E-score.
The result for CTCTATCA reads 0.0167 E-score; that for CTCGGAGA, -0.0113 E-score; that for CACGCGGC, -0.25 E-score.
The result for ATGGCATA reads -0.0363 E-score.
The result for TCACCCCA reads -0.026 E-score; that for AAATACTA, 0.434 E-score; that for GGGGTTGA, -0.294 E-score.
For TAAACGAA, the binding signal was -0.0721 E-score.
The figure for AAGAGTGC is 0.029 E-score.
The result for ACTATCAC reads 0.231 E-score; that for CTCCCTGA, -0.284 E-score.
The result for AGGTGCTA reads 0.0183 E-score.
TCTAATCA gave a binding signal of -0.00413 E-score.
The result for CTCCGACC reads -0.281 E-score.
The figure for CAGTACCG is -0.081 E-score; for CTTTCTAA it is 0.1 E-score.
AGTGGCTA: the binding signal is -0.139 E-score.
The result for CAAGCGGC reads 0.0233 E-score.
The figure for AACCTTCC is -0.00775 E-score.
The result for AATCTTCC reads 0.157 E-score; that for GCGCACCA, -0.0434 E-score; that for CGCCATCA, -0.123 E-score.
The sequence GCCTGTGA displayed a binding signal of -0.0709 E-score.
The result for TCGGAGAA reads 0.199 E-score; that for TCACCTCA, -0.184 E-score.
The figure for AATCACAT is 0.218 E-score; for CAAAGCCG it is -0.208 E-score.
Consider GTGGCAAA, for which the binding signal turned out to be 0.0701 E-score.
The result for CAGAAGAC reads -0.0817 E-score; that for AAGGGCTC, -0.148 E-score; that for CATATGCG, 0.0731 E-score.
Sequence CGGGGCGC had a binding signal of -0.159 E-score.
Sequence GATACAGC registered a binding signal of -0.0567 E-score.
The figure for ACCAACAA is -0.0896 E-score.
TCGAGGCA showed a binding signal of 0.00484 E-score.
The result for ACAGTTGC reads -0.0875 E-score; that for TAGCTCAA, 0.124 E-score; that for AGCTAAAG, -0.0914 E-score.
The figure for GATAGATA is 0.347 E-score; for CGTCGATA it is 0.0763 E-score.
CTGGTTTA registered a binding signal of 0.0421 E-score.
Sequence GGGCTCCA came in with a binding signal of -0.125 E-score.
The result for ATGTTCCA reads -0.0592 E-score; that for CTATGAAG, 0.0148 E-score; that for CTGCGCTA, -0.0572 E-score.
The result for GGTACGTA reads 0.226 E-score.
The figure for CTGACCAA is -0.0709 E-score; for CGTAGAGC it is -0.00238 E-score.
For the sequence AGTTTGCG, the binding signal is 0.156 E-score.
For AGTTCACA, the binding signal was 0.14 E-score.
The figure for AACAATCC is 0.206 E-score; for CGCGGTGC it is -0.182 E-score.
On to ACAGGTCT, for which the binding signal was -0.135 E-score.
Turning to ATATCACA, the binding signal was found to be 0.142 E-score.
The figure for AGTTTGAG is 0.014 E-score.
The result for AAATCGGA reads -0.0443 E-score; that for GAGAAATA, 0.345 E-score.
The result for AAAAACGA reads -0.00048 E-score; that for GAGTTGGC, -0.11 E-score.
The sequence CCGAGTTA yielded a binding signal of 0.272 E-score.
The figure for CAAAAGTA is 0.233 E-score.
The figure for AATGCTTC is -0.0613 E-score; for CCCATCAC it is -0.0947 E-score.
The result for ACTCACAA reads -0.0122 E-score; that for CCGGCCGC, -0.167 E-score.
CCTTCCTC showed a binding signal of -0.248 E-score.
The figure for GGTGATCA is -0.248 E-score; for AGGTACTC it is -0.011 E-score; for AAGGATCA it is -0.0571 E-score.
The figure for AATGACCT is -0.0442 E-score; for ACGTCGAT it is 0.108 E-score; for AGTGTAGA it is 0.243 E-score.
The result for ACGCTAAC reads -0.136 E-score; that for AAAATTAC, 0.327 E-score.
AAGTTTCC gave a binding signal of 0.148 E-score.
The figure for CATTAGCG is 0.196 E-score.
The result for ATCCCTCG reads -0.11 E-score; that for GCGTATCA, 0.0707 E-score.
GACAAGGC showed a binding signal of -0.188 E-score.
The result for GAATTGGA reads 0.082 E-score; that for GCGCATCC, -0.307 E-score; that for ATATCAGG, 0.0706 E-score.
Regarding CATGCTGG, the binding signal was -0.158 E-score.
The result for GTCGGGCA reads -0.133 E-score.
The result for ATTAATTA reads 0.391 E-score; that for CGACGTTA, 0.108 E-score; that for CCATTTCC, -0.102 E-score.
The figure for CACCTAGC is -0.169 E-score.
Sequence AAAGGGAG showed a binding signal of -0.241 E-score.
Regarding ACCCTACC, the binding signal is -0.0495 E-score.
The figure for AACTATGG is 0.133 E-score; for ACTTACTA it is 0.301 E-score; for CGCGTGAC it is -0.14 E-score.
CCAGTCCC showed a binding signal of -0.292 E-score.
Regarding CATACTTA, the binding signal worked out at 0.0391 E-score.
The figure for AGCTGGGA is -0.105 E-score; for AATGATTA it is 0.0681 E-score; for GCTTTCAA it is -0.116 E-score.
Turning to CTAACCTA, the binding signal amounted to 0.233 E-score.
The figure for CGAGCGAC is -0.11 E-score; for ATCTACGG it is 0.0258 E-score; for CTTCTATC it is 0.241 E-score.
The figure for ATCCGGCA is -0.0342 E-score.
The result for GCACACGC reads -0.121 E-score; that for AACAGAGG, -0.0648 E-score; that for CTCAACCA, -0.0917 E-score.
Sequence TAATTCAA returned a binding signal of 0.168 E-score.
Regarding ACACGCGC, the binding signal was -0.245 E-score.
The result for GAGCACCA reads -0.134 E-score; that for AAACCTAG, 0.149 E-score.
The figure for CGGAGCCG is -0.226 E-score; for ACCCTAAC it is -0.264 E-score; for CCGATCGA it is -0.102 E-score.
Sequence GTGATCGA showed a binding signal of -0.128 E-score.
The figure for AAATCGTG is 0.0607 E-score; for ACAAGATA it is 0.302 E-score.
As for ATTACGTC, the binding signal turned out to be 0.162 E-score.
The figure for AAAAGATC is 0.0387 E-score; for ATGACCCA it is -0.129 E-score.
The figure for GACCGACC is -0.0917 E-score; for AACCTGCC it is -0.234 E-score; for AGGCAATA it is 0.0316 E-score.
In the case of ATGGCCGA, the binding signal is -0.0882 E-score.
The result for CGTTTTAC reads -0.0888 E-score; that for TGTACGAA, 0.113 E-score.
The result for CATTTAGG reads -0.0729 E-score.
The figure for AACGCCCA is -0.278 E-score; for AATCCATC it is -0.0998 E-score.
On to TATACAAA, for which the binding signal was 0.347 E-score.
The figure for AAGCACAA is 0.035 E-score; for CCAACGCG it is -0.329 E-score.
The result for CTCGACAG reads -0.196 E-score; that for AGGTGACG, -0.157 E-score.
The result for CAGACCTC reads -0.147 E-score.
With CGTTTCGC, the binding signal was -0.171 E-score.
In the case of ACCACTTG, the binding signal was determined as 0.127 E-score.
CCGTTACC showed a binding signal of -0.0467 E-score.
The result for GCTATTCC reads -0.0878 E-score; that for AGGATAAC, 0.000611 E-score; that for AGTCCCCG, -0.217 E-score.
Consider GCGTTCGA, for which the binding signal was -0.142 E-score.
CATACTAG registered a binding signal of 0.285 E-score.
The figure for GTACCGCA is 0.123 E-score; for AGTACCAC it is 0.0678 E-score.
The result for GGCACGAA reads -0.261 E-score.
Take CACCAATC: the binding signal was -0.13 E-score.

For the origin of these results see publication PMC6212790.
